Experimental findings from PubChem BioAssay AID1347073 (National Center for Advancing Translational Sciences (NCATS), 2019) are described below.

Screen size: about 45,000 compounds; about 200 (0.44%) were called active. About 7% were inconclusive and are not listed. Calls come from the whole dose curve; as a rule, active = well fitted activation curve with a large enough effect; inconclusive = small, poorly fitted or top-dose-only effect; inactive = no such curve, though single readings can be large or run the other way. This is one part of the list.

The experiment in a line: qHTS of TDP-43 Inhibitors: NCGC Sytravon Library Screen. Note: 0% is about no effect; nearly all actives have a fitted effect of over 55% in size. The conditions noted are these: yeast TDP-43 toxicity rescue, BacTiter-Glo growth, 24 h; series mostly up to 46.1 µM; growth rescue (activation): at the top concentration. The procedure, abridged: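 TDP-43-expressing yeast, pregrown in raffinose, seeded at OD600 0.02 in galactose medium with compound for 24 hr at 30 deg C. Growth read by BacTiter-Glo luminescence, so rescue of toxicity appears as activation.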
On the technique in general: qHTS replaces the single test concentration by a dilution series.
Turning to `Cc1cc(C)nc(Sc2ccc(C=O)cc2[N+](=O)[O-])n1`, the “growth rescue (activation)” value is inactive: 2.07%.

Regarding `COc1ccc(/C=N/NC(=O)CNS(=O)(=O)c2ccc(C)cc2)cc1`, the “growth rescue (activation)” value was inactive: 6.65%. In the case of `S=c1[nH]nc(COc2ccccc2)n1/N=C/c1cccc(Br)c1`, the “growth rescue (activation)” value was inactive: 3.01%. To `Clc1ccc(/C=N/Nc2ccccn2)cc1` belongs inactive: 17.4%; to `Cc1ccc(CS(=O)(=O)c2nsc(C)c2C#N)cc1`, inactive: 16.2%.

In the case of `O=C(NCCc1ccccc1Cl)C1CC(=O)N(C2CCCCC2)C1` (stereo not given), the “growth rescue (activation)” value was inactive: -0.591%. Consider `CCCOC1CCCN(Cc2cn(C)nc2-c2ccccc2F)C1` (stereo not given), for which the “growth rescue (activation)” value was inactive: -4.47%. On to `CC1=C(CCN2CCN(C3CCCC3)C(CCO)C2)C(C)(C)CCC1` (stereo not given), for which the “growth rescue (activation)” value was inactive: 4.76%. To `CC1=NN(c2ccc(C)cc2)C(=O)/C1=C\c1ccc(Br)s1` belongs inactive: 13.3%; to `COc1ccc(OCC(=O)OC2CCCN(C)C2)cc1` (stereo not given), inactive: 0.879%; to `Cc1ccc(CNC(=O)/C=C/c2c(Cl)cccc2Cl)cc1`, inactive: 14.7%.

On to `C=CCN(C(=O)c1csnn1)C(C(=O)NC1CCCCC1)c1ccccc1` (stereo not given), for which the “growth rescue (activation)” value is inactive: -10.1%.

Turning to `O=C(CN1CCC(C(=O)c2ccc3c(c2)OCCO3)CC1)NCc1ccc(F)cc1`, the “growth rescue (activation)” value is inactive: 11.1%. To `COc1cc(NC(=O)c2ccc3c(c2)OCCO3)ccc1NC(=O)c1ccco1` belongs inactive: 9.96%; to `Cc1ccc(NN=C2c3ccccc3-c3ccccc32)cc1`, inactive: 8.14%; to `CC(C)CC(N)c1csc(Nc2cc(Oc3ccccc3)ncn2)n1` (stereo not given), inactive: 14.4%. To `COC(=O)CCSc1cc([N+](=O)[O-])cc2c1c(C1OCCO1)nn2-c1ccccc1` belongs inactive: 10.2%. As for `N#C/C(C(=O)NCc1ccccc1)=C1/N=C(NC(=O)c2ccco2)c2ccccc21`, the “growth rescue (activation)” value was inactive: 18.5%.

Turning to `CCCn1c(SCC(=O)N2CCN(CC)CC2)nc2c1c(=O)n(C)c(=O)n2C`, the “growth rescue (activation)” value was inactive: -10.7%. With `CCOC(=O)C1CCCN(C(=S)Nc2ccc(S(=O)(=O)N3CCOCC3)cc2)C1` (stereo not given), the “growth rescue (activation)” value was inactive: -3.84%. For `COc1ccc(C(=O)NNC(=O)C(=O)/C=C(\O)c2ccc(C)cc2)cc1`, the “growth rescue (activation)” value was inactive: -28%. The result for `Cc1ccsc1CN(C)C(=O)c1ccc(Oc2ccccc2)cc1` reads inactive: -2.24%; that for `CCc1nnc(NC(=O)CCC(=O)NCCc2ccc(OC)c(OC)c2)s1`, inactive: -18.7%; that for `CC1=C(C(=O)OC2CCCCC2)C(c2ccc(C)o2)C2=C(CCCC2=O)N1` (stereo not given), inactive: -17.6%. With `CC1CCN(C(=O)CSc2nnc3c(n2)[nH]c2ccc(F)cc23)CC1`, the “growth rescue (activation)” value is inactive: -0.425%.

`C[C@@H]1CN(Cc2nc(-c3cnccn3)no2)C[C@H](C)O1`: the “growth rescue (activation)” value was inactive: -4.31%.

As to `Cc1nn(C(C)C)c(C)c1CN1CCCC(C(=O)c2cccc(OC(C)C)c2)C1` (stereo not given), the “growth rescue (activation)” value was inactive: -2.52%.

Turning to `CC(C)(O)C1Cc2cc(/C=C/C(=O)O)c(O)cc2O1` (stereo not given), the “growth rescue (activation)” value is inactive: -93.3%. The result for `O=C(c1ccccc1)N1CCN(C(=O)c2nn3c(C(F)(F)F)cc(-c4ccco4)nc3c2Cl)CC1` reads inactive: -3.89%; that for `CN1CCN(c2ncnc3c2ncn3[C@H]2CN(Cc3cccs3)C[C@@H](CO)O2)CC1`, inactive: -3.02%.
